The whole screen tested about 48,000 compounds, of which about 550 (1.1%) were called active. Roughly 4% stayed inconclusive and do not appear here. No stated cut-off is given here; in the data, active means potency below about 15 µM; inconclusive means mostly about 16 µM to 33 µM; inactive means weaker than that. Some of the results follow.
Target: Lysosomal acid glucosylceramidase (Homo sapiens) (UniProt P04062)
Experiment: Glucocerebrosidase;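 further: the screen sought inhibitors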
Conditions: purified enzyme, resorufin glucoside fluorescence (screen aimed at inhibitors), 20 min
Summary of the method: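 Wild-type enzyme at 0.2 nM final in 50mM citric acid/KH2PO4, 10mM sodium taurocholate, 0.01% tween-20, pH 5.9, with resorufin beta-D-glucopyranoside at 30 uM final. Compounds titrated, 20 min at RT, red fluorescence read; AC50 from titration.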
Potency means the concentration at half of the fitted maximal effect.

Chain of UniProt P04062 (P04062 whole entry, looked up): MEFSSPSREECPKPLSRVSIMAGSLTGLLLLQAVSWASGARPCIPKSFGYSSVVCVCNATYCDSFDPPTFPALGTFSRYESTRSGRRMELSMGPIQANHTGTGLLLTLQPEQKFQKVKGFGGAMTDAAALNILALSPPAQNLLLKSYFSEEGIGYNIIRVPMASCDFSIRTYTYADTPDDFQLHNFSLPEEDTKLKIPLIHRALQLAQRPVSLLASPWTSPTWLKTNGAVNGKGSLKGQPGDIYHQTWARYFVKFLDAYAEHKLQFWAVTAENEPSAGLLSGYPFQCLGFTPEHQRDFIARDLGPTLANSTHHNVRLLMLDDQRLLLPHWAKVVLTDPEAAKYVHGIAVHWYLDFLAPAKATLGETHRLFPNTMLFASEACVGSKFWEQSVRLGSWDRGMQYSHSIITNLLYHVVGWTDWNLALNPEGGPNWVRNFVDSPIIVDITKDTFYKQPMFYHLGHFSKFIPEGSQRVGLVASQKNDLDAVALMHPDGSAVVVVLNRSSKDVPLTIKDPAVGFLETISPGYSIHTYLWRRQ

Potency, inactive:
Cc1cccc(N2CCN(C(=O)C34CC5CC(CC(C5)C3)C4)CC2)c1C > 76.9 µM
CCN(CC(=O)NCc1ccccn1)S(=O)(=O)c1ccc(Cl)cc1 > 76.9 µM
COC(=O)c1c(NC(=O)CCc2ccc(C)o2)sc(C)c1C
Cc1cccc(C)c1NC(=O)COC(=O)c1nonc1N > 76.9 µM
c1cncc(Nc2nc(-c3cccs3)cs2)c1 > 76.9 µM
O=C(CCCc1c[nH]c2ccccc12)N1CCCCCC1 > 76.9 µM
NC(=O)c1ccccc1NC(=O)CCCN1C(=O)CCC1=O > 76.9 µM
COc1ccccc1NC(=O)CN1C(=O)CCS(=O)(=O)c2ccccc21 > 76.9 µM
CCCS(=O)(=O)N1CCCC(C(=O)N2CCN(c3ccccn3)CC2)C1 (stereo not drawn) > 76.9 µM
O=C1c2ccccc2C(O)(Cc2ccccc2)N1C1CCCCC1 (stereo not drawn) > 76.9 µM
Cc1cccc(CSc2nncc(=O)[nH]2)c1 > 76.9 µM
COc1ccc(C(=O)N2CCCN(C)CC2)cc1S(=O)(=O)N1CCCc2ccccc21 > 76.9 µM
O=C(NCc1cccs1)c1cccc(S(=O)(=O)N2CCCCC2)c1 > 76.9 µM
O=C(CCN1CCN(c2ccccc2F)CC1)Nc1ccc2c(c1)OCO2 > 76.9 µM
COC(=O)c1[nH]c2cc(C)ccc2c1NC(=O)CN1CCN(c2ccccc2OC)CC1 > 76.9 µM
COC(=O)Cc1csc(N)n1 > 76.9 µM
COC(=O)C1=C(CN2CCCc3ccccc32)NC(=O)NC1c1ccc(F)cc1 (stereo not drawn) > 76.9 µM
CN(C)c1ccc(/C=C/c2ccncc2)cc1 > 76.9 µM
Cc1cccc(N2C(=O)N(c3ccccc3C)C3CS(=O)(=O)CC32)c1 (stereo not drawn) > 76.9 µM
Cc1cc(=O)n2nc(N3CCC(C(=O)NCc4cccnc4)CC3)sc2n1 > 76.9 µM
O=c1oc2ccccc2c2c1ncn2C1CCCCC1 > 76.9 µM
O=C(CSc1ccccc1)Nc1cccnc1 > 76.9 µM
O=C(Cn1nnc2ccccc2c1=O)N1CCCc2ccccc21 > 76.9 µM
CC(OC(=O)C1CCN(S(=O)(=O)c2ccccc2)CC1)C(=O)Nc1ncc(Cl)cc1Cl (stereo not drawn) > 76.9 µM
O=C(c1ccco1)N1CCN(S(=O)(=O)c2ccc(Oc3ccccc3)cc2)CC1 > 76.9 µM
COc1cc2c(cc1OC)C(=NCCC(=O)O)NC(C)(C)C2 > 76.9 µM
O=c1[nH]cnc2nc(-c3ccccc3)c(-c3ccccc3)nc12 > 76.9 µM
COCc1nc2ccccc2n1Cc1ccc(Br)cc1 > 76.9 µM
Clc1cc(Cl)c2nc(N3CCOCC3)sc2c1 > 76.9 µM
CCOC(=O)CSc1nc2c(sc3ccccc32)c(=O)n1CCCN1CCOCC1
Cc1cc(N2CCOCC2)nc(SCC(=O)c2ccc(Cl)cc2)n1 > 76.9 µM
COc1ccc(NC(=O)N(C2CCCCC2)C(C)c2cccnc2)c(OC)c1 (stereo not drawn) > 76.9 µM
Cc1onc(-c2ccccc2Cl)c1C(=O)N1CC(C)OC(C)C1 (stereo not drawn) > 76.9 µM
CCCn1nnc(NC(=O)COc2ccccc2Cl)n1 > 76.9 µM
CCCCSc1c(C)c2cc3c(cc2[nH]c1=O)OCO3 > 76.9 µM
CCC(=O)Nc1ccc(S(=O)(=O)Nc2cccc(C)c2)cc1OC > 76.9 µM
COc1ccccc1S(=O)(=O)Cc1ccc(C(=O)NC(C)c2ccc3c(c2)OCCO3)o1 (stereo not drawn) > 76.9 µM
COc1ccc(N2CCN(C(=O)CNC(=O)Cn3c(C)cc4ccccc4c3=O)CC2)cc1 > 76.9 µM
Cc1ccc(-c2nc(C#N)c(NCc3cccc4c3OCO4)o2)cc1 > 76.9 µM
O=C(C1CCC(=O)N1Cc1ccccc1Cl)N1CCN(c2ccc(F)cc2)CC1 (stereo not drawn) > 76.9 µM
CCN(CC)c1ccc(NC(=O)c2ccccc2F)cc1 > 76.9 µM
O=C(NCc1ccc(F)cc1)C1CCCN(S(=O)(=O)c2cccnc2)C1 (stereo not drawn) > 76.9 µM
O=C1NC(c2cccnc2)C(C(=O)c2cccs2)C(O)(C(F)(F)F)N1 (stereo not drawn) > 76.9 µM
Cc1onc(-c2ccccc2)c1C(=O)Nc1ccccc1N1CCOCC1 > 76.9 µM
O=C(Nc1ccc(F)cc1F)c1cccnc1 > 76.9 µM
COCCn1c(N)c(S(=O)(=O)c2cccs2)c2nc3ccccc3nc21 > 76.9 µM
CC1CN(C)C(C)CC1NCc1ccc2c(c1)OCO2 (stereo not drawn) > 76.9 µM
Cc1cc2nc(C(F)(F)F)[nH]c(=O)n2n1 > 76.9 µM
CCOC(=O)c1sc2ncn(C(C)C(=O)OCC)c(=O)c2c1C (stereo not drawn) > 76.9 µM
CN=c1scc(C)n1/N=C/c1ccc(O)cc1O > 76.9 µM
COc1ccc(CCNC(=O)C2CCCN(S(=O)(=O)c3cccc4nonc34)C2)cc1OC (stereo not drawn) > 76.9 µM
CCOc1cc(C(=O)Nc2ccc(S(=O)(=O)N3CCOCC3)cc2)cc(OCC)c1OCC > 76.9 µM
CS(=O)(=O)Nc1ccc(-c2n[nH]c(=S)n2-c2ccccc2)cc1 > 76.9 µM
COc1ccc(CNCCNC(=O)c2ccco2)c(OC)c1OC > 76.9 µM
CCN(CC)S(=O)(=O)c1ccc(-c2nnco2)cc1 > 76.9 µM
CC1(C)Cc2c(sc3c2c(=O)n(Cc2ccccc2)c2nncn32)CO1 > 76.9 µM
CCOC(=O)Nc1c(C(=O)OC)[nH]c2cc(OC)ccc12 > 76.9 µM
COc1ccc(C)cc1S(=O)(=O)Nc1ccc(F)c(Cl)c1
O/N=C1\CC(O)Cc2nonc21 (stereo not drawn) > 76.9 µM
CCn1c(CNc2ccc(F)cc2)nnc1SCCN1CCCCC1 > 76.9 µM
COC(=O)N(C)c1nc2ccccc2s1 > 76.9 µM
Cc1ccc(CN2C(=O)CCC2C(=O)NCCN(CC(C)C)CC(C)C)cc1 (stereo not drawn) > 76.9 µM
CCCOc1ccc(/C(O)=C2/C(=O)C(=O)N(CCCOC)C2c2cccnc2)cc1 (stereo not drawn) > 76.9 µM
O=C(O)Cc1nc2nc3c(c(=O)n2[nH]1)CCCC3 > 76.9 µM
Cn1cnnc1SCC(=O)NCc1cccc(C(F)(F)F)c1 > 76.9 µM
CN1C=CC2=C(C#N)C(N)C(C#N)(C#N)C(c3ccccc3)C2C1 (stereo not drawn) > 76.9 µM
COC(=O)Cc1c(C)c2c(O)cc(C)cc2oc1=O > 76.9 µM
O=C(OCn1nnc2ccccc2c1=O)C1=COCCO1 > 76.9 µM
O=C(CSc1nnc(CNC(=O)c2ccccc2F)o1)c1ccccc1 > 76.9 µM
CC1(NC(=O)C23CC4CC(CC(C4)C2)C3)CCS(=O)(=O)C1 (stereo not drawn) > 76.9 µM
O=C(CCC(=O)c1cccs1)Nc1ccccc1F > 76.9 µM
O=C(COc1ccccc1Cl)NCc1ccco1 > 76.9 µM
CCC(=O)N1CCc2cc(S(=O)(=O)CCC(=O)NCCC3=CCCCC3)ccc21 > 76.9 µM
O=C1CC(c2ccccc2)n2nc(NC(=O)c3ccccn3)nc2N1 (stereo not drawn) > 76.9 µM
Nc1nc(NCc2c(F)cccc2Cl)nn1-c1ccccc1 > 76.9 µM
CC(C)(C)C1CCc2onc(C(=O)NCc3ccc(F)cc3)c2C1 (stereo not drawn) > 76.9 µM
c1coc(-c2nc3nc4ccccc4nc3n2CC2CCCO2)c1 (stereo not drawn) > 76.9 µM
Cc1nc2ccc(F)cc2cc1C(=O)NCc1ccco1 > 76.9 µM
CS(=O)(=O)c1ccc(N2CCN(C3CC(=O)NC3=O)CC2)cc1 (stereo not drawn) > 76.9 µM
CCn1c(SCc2nc3ccccc3s2)nc2cc(S(=O)(=O)N3CCOCC3)ccc21 > 76.9 µM
Cc1ccc(NC(=O)Cn2nnc(C(=O)Nc3ccc(C)c(C)c3)c2N)cc1 > 76.9 µM
CCOc1ccc(NS(=O)(=O)c2ccc3[nH]cc(C(=O)N(CC)CC)c(=O)c3c2)cc1 > 76.9 µM
O=C(CSc1nnc(NC(=O)c2ccco2)s1)NC1CCCC1 > 76.9 µM
c1ccc(CSCc2cn3ccsc3n2)cc1 > 76.9 µM
COc1cc(C(=O)Nc2ccc3c(c2)OCCO3)c(-n2cnnn2)cc1OC > 76.9 µM
CCN(CC)S(=O)(=O)c1ccc2nc(COC(=O)c3n[nH]c4ccccc34)[nH]c2c1 > 76.9 µM
O=c1cc(N2CCOCC2)[nH]c(=O)n1C1CCCCC1 > 76.9 µM
CCOC(=O)c1c(NC(=O)COc2ncnc3sccc23)sc2c1CCC2 > 76.9 µM
Cc1cc(Br)ccc1OCC(=O)N(Cc1nc(-c2ccccc2)no1)C(C)C > 76.9 µM
Cc1ccc(-n2c(Cc3cccn3C)nnc2SCC(=O)N2CCN(c3ccccc3)CC2)cc1 > 76.9 µM
O=C(O)c1cc(Nc2nc(N3CCOCC3)nc(N3CCOCC3)n2)ccc1Cl > 76.9 µM
Cc1cc(N2CCOCC2)n2nc(-c3cccc(F)c3)cc2n1 > 76.9 µM
C=CCn1c(SCC(=O)c2ccccc2)nnc1-c1cc2ccccc2o1 > 76.9 µM

Source: PubChem BioAssay AID360 (National Center for Advancing Translational Sciences (NCATS), 2006)
